Laboratory results: the supplement of paper PMC3334620
Whole data set: some 33,000 sequences, median “E-score (-0.5 to 0.5)” near -0.012, cut for the highest 2% near 0.27. This is one part of the list.

Biological target: T1, Vhr1 (UniProt P40522)
T1 sequence: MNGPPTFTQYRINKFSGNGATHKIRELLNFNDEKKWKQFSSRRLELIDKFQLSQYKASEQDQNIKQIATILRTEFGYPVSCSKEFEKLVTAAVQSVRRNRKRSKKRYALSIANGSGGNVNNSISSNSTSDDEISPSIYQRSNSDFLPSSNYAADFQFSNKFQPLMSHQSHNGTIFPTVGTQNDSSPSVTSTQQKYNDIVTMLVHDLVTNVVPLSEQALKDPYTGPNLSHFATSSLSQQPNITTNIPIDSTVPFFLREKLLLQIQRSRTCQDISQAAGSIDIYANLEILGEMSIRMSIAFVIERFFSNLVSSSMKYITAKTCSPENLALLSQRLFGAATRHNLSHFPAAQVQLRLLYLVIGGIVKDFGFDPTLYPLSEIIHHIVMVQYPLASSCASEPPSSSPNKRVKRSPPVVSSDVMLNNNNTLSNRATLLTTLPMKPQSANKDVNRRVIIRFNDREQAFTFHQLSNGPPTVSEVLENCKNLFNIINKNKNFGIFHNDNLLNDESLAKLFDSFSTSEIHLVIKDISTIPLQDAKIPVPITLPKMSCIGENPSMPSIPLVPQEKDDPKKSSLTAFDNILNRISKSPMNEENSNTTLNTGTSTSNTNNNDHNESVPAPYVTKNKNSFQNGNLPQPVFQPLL
Test: PBM E-score (8-mer binding enrichment) (E-score (-0.5 to 0.5)); higher = stronger / more preferred TF binding; most listed sequences are background and not binding sites
Details: protein concentration: 200 nM; construct: GST-full length
Outline: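 PURExpress in vitro transcription/translation supplied GST-tagged yeast transcription factors, either full-length or DNA-binding domain. Applied at about 100-200 nM to universal all-10-mer Agilent arrays double-stranded by primer extension, the bound protein was detected with fluorescent anti-GST. E-scores, modified Wilcoxon-Mann-Whitney statistics, were given by the Universal PBM Analysis Suite to ungapped eight-base words pooled with their reverse complements after masliner normalisation.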

Row | Sequence | PBM E-score
1 | GTTAAGGA | -0.0499
2 | AGACTGAC | 0.114
3 | CTTGCCTA | -0.261
4 | GCTGAAGC | -0.11
5 | CTCTCTTC | -0.219
6 | AAGCTCAA | -0.198
7 | AACTTTAG | -0.23
8 | AGCCCTCC | -0.09
9 | CGAGGCGA | 0.153
10 | AATACACG | -0.179
11 | AGGCGGAC | 0.0539
12 | CGACATGC | -0.0401
13 | AGTTACGA | 0.0138
14 | GACACGTC | 0.0792
15 | CTTCAAGA | -0.266
16 | GATATTAA | 0.169
17 | AGCGAGCG | 0.0572
18 | GATCTTAC | -0.186
19 | ACGTGCAC | -0.173
20 | GCCTGAGC | -0.058
21 | ACTACGGG | -0.0349
22 | GTGGCAAA | -0.131
23 | ATGGGGGG | -0.0708
24 | CTCTCTAA | -0.193
25 | ATCTCCTA | -0.0969

Row | Sequence | PBM E-score
26 | CTGAGCCC | 0.205
27 | ACTACACC | 0.0897
28 | AGGTCTCC | -0.0486
29 | CAATAGAA | -0.22
30 | CTTTCGGA | -0.239
31 | GAGCATTA | 0.0481
32 | AGGAACGC | -0.12
33 | AAGAGGGT | -0.255
34 | AGTCAATC | 0.231
35 | AGTGCCTA | -0.179
36 | ACTGCGAG | 0.0985
37 | AATTTGGG | 0.0489
38 | ATCCCAAT | -0.0808
39 | AGAGCGCA | -0.145
40 | AACTCGAC | 0.172
41 | ACCCGATC | 0.0339
42 | AAGTGCAG | -0.193
43 | CACCTAGG | -0.073
44 | CTAGCATC | -0.0731
45 | ACAACTGT | -0.0775
46 | CGGGACGC | -0.169
47 | AAGAGCTC | -0.34
48 | CTTTGTAC | -0.0665
49 | ATACCCAT | 0.269
50 | AACACGTG | 0.122

Row | Sequence | PBM E-score
51 | ACTGCCAG | 0.131
52 | GGTCTTAA | -0.218
53 | CTAGGCCA | -0.151
54 | TCTTGAAA | -0.13
55 | CATGACAA | 0.0092
56 | GAGAATAC | 0.154
57 | CCGCATGA | 0.146
58 | CCCCGTCC | -0.0277
59 | AAGCCGCG | -0.0488
60 | CAGCCAGG | 0.0621
61 | ACGCCATA | 0.0809
62 | CCTCTAGC | -0.228
63 | ACACTACT | 0.125
64 | CGAATCCC | 0.00269
65 | AAATTCAA | -0.231
66 | CATCCTAA | 0.00126
67 | TGACTTAA | 0.118
68 | ACACAAGC | 0.255
69 | AATTCGGG | -0.172
70 | AAAGCCAG | -0.0737
71 | CTGAGGAA | -0.261
72 | CTGCTATC | 0.107
73 | GGTCTTGA | -0.0702
74 | AGGGTTAA | -0.167
75 | ATAGTATC | 0.0288

Row | Sequence | PBM E-score
76 | AATGGACC | -0.0459
77 | AGCAAGTA | 0.0454
78 | ACCTGATG | 0.147
79 | AAAACGCA | 0.00163
80 | ACATTTGC | -0.0424
81 | ACAGAATG | 0.0432
82 | ACAACCCG | 0.0771
83 | GGCCGCTA | -0.155
84 | ACCCGGTG | 0.0291
85 | CAAATGGC | -0.185
86 | ACGATGAA | 0.151
87 | CGTTGGAC | -0.0825
88 | AAAGAAGA | -0.162
89 | ACGGTGGC | 0.12
90 | CCGGTATC | -0.0549
91 | AACGCAGG | 0.132
92 | GACTTGGA | -0.0645
93 | CGACGAAA | 0.0886
94 | CGGTCTGC | 0.0253
95 | AATTCCAT | -0.052
96 | ATTGTCCC | -0.125
97 | GATAACCC | -0.107
98 | CACCATAG | -0.00069
99 | CATAACAC | 0.185
100 | CCAACCTA | -0.0504

Row | Sequence | PBM E-score
101 | GGCCAAAA | -0.241
102 | AGATGCGG | -0.00129
103 | ACCGTAGA | -0.076
104 | AACCACCG | -0.0412
105 | ACGCGGAA | 0.0134
106 | CTATCGAA | 0.0824
107 | GTACTTCA | 0.114
108 | AGCACTCA | 0.123
109 | GACATTTA | -0.101
110 | CATCATCA | -0.0217
111 | AAGGGCGG | -0.0187
112 | CGTACACG | 0.0951
113 | CATGCAAA | -0.0671
114 | CATCTCAG | 0.177
115 | ACGACACC | 0.123
116 | CAGCTGCG | 0.0036
117 | AAATGAGG | -0.211
118 | ATGTCGAC | 0.0597
119 | GCCTCGCC | 0.0674
120 | GTCATGAA | 0.257
121 | AATGTGAT | -0.0554
122 | CTCGTCCA | 0.121
123 | AAGATCGA | -0.162
124 | AGGGTGTA | -0.00827
125 | AGGCTACT | 0.00152

Row | Sequence | PBM E-score
126 | GTCGACCA | 0.106
127 | GATTCACC | 0.243
128 | AGCGCACC | -0.0726
129 | ACGGTCGC | -0.152
130 | TCGACGCA | 0.109
131 | CATTAAGC | -0.0626
132 | CTGTCATC | -0.12
133 | GTATATAC | 0.0568
134 | AAACTCCG | -0.0785
135 | ACCTTTAA | -0.23
136 | AGTTAAAA | -0.22
137 | GCCCCTAC | -0.0944
138 | GGATAGCC | 0.0616
139 | ACAAGGTA | -0.116
140 | CCGAACAC | 0.00261
141 | GTAGTCAA | 0.262
142 | CGGGAACC | 0.018
143 | AAGTGTTC | -0.0599
144 | AAGTATGA | 0.124
145 | TCGTAAGA | -0.0781
146 | GTGTAACA | 0.149
147 | ATTGCTAC | -0.105
148 | AAGAGAAT | -0.0563
149 | CTCTGAGC | 0.0817
150 | AAAGGACC | -0.166

Row | Sequence | PBM E-score
151 | AACACTCG | 0.00575
152 | GGTCCACA | -0.0137
153 | CTGGCCCC | -0.0906
154 | CTACTGGC | -0.0587
155 | CTCCAGCA | -0.00643
156 | ATGACCAA | -0.0198
157 | AATAGCGC | 0.114
158 | ACTAAGAA | 0.0801
159 | AGGAACAA | -0.108
160 | TACATTGA | 0.0911
161 | TATGAGGA | -0.0561
162 | AGTTCGGC | -0.15
163 | ACGTTACG | -0.054
164 | TATCCCAA | -0.163
165 | ACGACACG | 0.093
166 | GTAACCCA | 0.231
167 | AGACTTAG | -0.0914
168 | CATATCAC | 0.0186
169 | ATTGTAGC | -0.0849
170 | AGGTATCA | -0.00362
171 | ATCTATCC | 0.0763
172 | CCCACTCA | 0.0948
173 | CCTAGTTA | -0.0525
174 | CATCGTAG | -0.0503
175 | ACGCTTAC | -0.205

Row | Sequence | PBM E-score
176 | ACGAGTCC | 0.0781
177 | GGCCATAC | 0.0276
178 | GGACCAAA | -0.0274
179 | CACTAGCG | -0.152
180 | CCAGGGTA | 0.071
181 | GCGGGCTA | -0.119
182 | GATTACTA | 0.121
183 | AAACCCCG | 0.171
184 | ACGAGCAT | 0.0404
185 | CCGTACTA | 0.177
186 | CAAGGTCC | -0.0834
187 | AGCTTTCG | -0.388
188 | GCACAAGA | -0.0127
189 | TCCCGAGA | -0.0263
190 | GTCACCAC | 0.0904
191 | ACCAACGA | 0.0931
192 | CTTTGGAC | 0.0623
193 | CAAGCCTA | -0.191
194 | ATTCTCGG | -0.094
195 | GCCAGTGA | -0.122
196 | CGCTGAAC | -0.167
197 | AACGACGC | -0.0318
198 | ACTCTCCA | -0.00442
199 | ATCCCTTC | -0.0156
200 | CGCCCAAA | 0.035

Row | Sequence | PBM E-score
201 | CAACCCGC | 0.272
202 | CTTGAACC | 0.0593
203 | AATATATT | 0.284
204 | TCACAGAA | 0.0529
205 | GACAGCCA | 0.0276
206 | CCATAAAA | -0.0394
207 | ACAATATG | 0.325
208 | ACATCACC | -0.0635
209 | AACGCCTG | -0.0483
210 | CACTTACG | 0.0636
211 | CGTGTAGC | 0.0546
212 | CCGAACAG | -0.0142
213 | ACTCTAAC | 0.09
214 | GATGAATC | 0.249
215 | ACAAAATA | -0.0636
216 | AATTCTTG | -0.216
217 | AGTCGCAC | 0.296
218 | AGTGAGTG | 0.00138
219 | CGATTCCC | 0.142
